Consider 80 compounds from publication PMC12040169 (PLOS Biology, 2025).

This is one part of the list.

This assay deals with T1, C. trachomatis L2/434/Bu expressing GFP (CTL2-GFP).
T1 construct: L2/434/Bu GFP intracellular growth in HeLa cells
Also noted: species or system HeLa; C. trachomatis total inclusion area by high-content imaging, normalised to DMSO. The settings on record: total inclusion area; 28.5 h, 10 µM; inhibitor. In short, it runs like this:
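Imaging read-out: GFP inclusions and Hoechst nuclei captured by high-content imaging after fixation. Inclusion area/number = chlamydial growth; nuclei count = host cell viability. MIC calculated per earlier method.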
Consider `Cc1cc(NC(=O)NC2CC3(CCN(C)CC3)Oc3ccccc32)no1` (centres unmarked) [CBK305059], for which the “% of control remaining” value came to 46.1274.
Take `COc1ccc2[nH]c3c(c2c1)CCN(C(=O)CNCc1ccc(OC)c(OC)c1)C31CCN(CCOc2ccccc2)C1` (centres unmarked) [CBK076736T]: the “% of control remaining” value was 61.1305.
Regarding `CC(=O)N1CCC2(C/C=C/C[C@H]3CN(CCCc4ccccc4)CC[C@H]3NC(=O)CNC2=O)CC1` [CBK292140], the “% of control remaining” value was found to be 95.5779.
As to `Cc1cccc(NC2(C(F)(F)F)NC(c3ccccc3)=NC2=O)n1` (centres unmarked) [CBK267476], the “% of control remaining” value was 102.194.
Consider `Cc1oc(CSc2nnc(NCc3ccc(F)cc3)s2)cc1C(=O)O` [CBK296629], for which the “% of control remaining” value is 102.673.
Regarding `COc1ccc(OC(=O)N2CCC3(CC2)CC(=O)N(Cc2ccc(S(C)(=O)=O)cc2)C3=O)cc1` [CBK155952], the “% of control remaining” value turned out to be 66.7363.
The same measure for `CCn1c(=O)n(CC(=O)NCCc2ccccc2)c2cccnc21` [CBK283812]: 91.8187; for `CC(C)(C)c1ccc2c(c1)C(CCCCN1CCCC1)(c1ccccc1)C(=O)O2` (centres unmarked) [CBK017654C]: 22.582; for `COc1ccc(-c2nc(COC(=O)c3cccnc3N)cs2)cc1OC` [CBK296741]: 73.5246.
In the case of `O=C(Nc1cccc(C(=O)O)c1)/C(=C\c1ccccc1)NC(=O)c1ccccc1Cl` [CBK263710] it was 101.392; in that of `Cc1c(C(=O)N2CCS(=O)(=O)CC2)nnn1-c1ccc2ncccc2c1` [CBK305529], 36.5174; in that of `O=C(CN1CCN(c2ncccn2)CC1)N1N=CCC1c1ccccc1` (centres unmarked) [CBK270184], 92.8827.
`COC(=O)CNC(=O)CNS(=O)(=O)c1ccc(C(C)=O)cc1` [CBK044117]: the “% of control remaining” value came to 72.0235.
Regarding `CC(=O)N1CCN(Cc2c(C(F)(F)F)[nH]c3ncc(C)cc23)CC1` [CBK284768], the “% of control remaining” value is 103.476.
In the case of `Cc1ccc(NC(=O)c2nccc3ccccc23)c(C)n1` [CBK200294] it was 111.256; in that of `CC(=O)N1C2CCC1CC(O)(Cn1ccc3ccnc(Cl)c31)C2` (centres unmarked) [CBK284868], 110.446.
In the case of `Cc1cc(C)nc(NC(=O)OCCc2cccnc2)c1` [CBK138234] it was 83.4919.
The same measure for `Cc1ccc2[nH]c(/C(C#N)=C\c3cc(C)n(-c4ccc(S(N)(=O)=O)cc4)c3C)nc2c1` [CBK267611]: 101.072; for `O=C(Nc1cccc2ncccc12)c1ccnc(N2CCOCC2)c1` [CBK287882]: 98.5878.
For `CN1CCCCCC1c1nc(-c2c[nH]c3ccccc23)nn1CCO` (centres unmarked) [CBK306988], the “% of control remaining” value worked out at 73.9658.
Turning to `CC(c1ccc(F)c(F)c1)N(C)C(=O)Cn1ncn(C)c1=O` (centres unmarked) [CBK305083], the “% of control remaining” value was 80.5161.
The same measure for `Cn1c(=O)n(CC(N)=O)c(=O)c2c1nc1oc(C(C)(C)C)cn12` [CBK306081]: 35.0836; for `C=Cn1cc(CN2CCN(C3CCCCC3)C(=O)C2)c(C)n1` [CBK282561]: 131.503.
The same measure for `Cn1cc(CNCc2ccc(N3CCCC3)nc2)c(-c2cccnc2)n1` [CBK306312]: 55.5858; for `Cc1ccc(S(=O)(=O)N(C)c2c(C)ccc(S(=O)(=O)N(C)CCO)c2C)cc1` [CBK264970]: 99.4272; for `CC(NC(=O)COc1ccc(Br)cc1)C(=O)O` (centres unmarked) [CBK262083]: 85.7072.
The same measure for `O=C1NCC2(CCN(C(=O)C3CCCC3)CC2)Oc2ccccc21` [CBK282920]: 82.3083.
Consider `O=C1NC(=O)C(CC(=O)N2CCC3(CCN(C(=O)Cc4c[nH]c5ccccc45)C3)C2)N1` (centres unmarked) [CBK131436], for which the “% of control remaining” value came out at 103.395.
The same measure for `Cc1cc(C)cc(Nc2c(-c3ccc(C(=O)O)cc3)nc3cnccn23)c1` [CBK287166]: 105.829.
In the case of `Cc1cccc(OCC(=O)NCC(c2cccs2)N2CCOCC2)c1` (centres unmarked) [CBK305426] it was 98.2496; in that of `Cc1ccc(NC(=O)c2ccc3ccccc3n2)c(C)n1` [CBK200293], 134.694; in that of `Cc1cc(C)c(C)c(S(=O)(=O)Nc2ccc(O)c(Sc3nc[nH]n3)c2)c1C` [CBK267012], 123.718.
For `Cc1ccc2oc(C(=O)N(CCO)CCc3ccncc3)c(C)c2c1` [CBK281642], the “% of control remaining” value was 101.643.
With `CN1CCN(CCC(=O)Nc2cccc(Cl)c2)CC1` [CBK070793C], the “% of control remaining” value came to 120.643.
The same measure for `CC(=O)C(C)Oc1ncn(-c2ccccc2)n1` (centres unmarked) [CBK008377]: 58.833.
The same measure for `O=C(Cn1nc(-c2cc3c(s2)CCC3)oc1=O)N1CCCC1` [CBK284712]: 95.6065; for `O=C(Cc1ccccn1)NC(Cc1ccsc1)c1nccs1` (centres unmarked) [CBK282821]: 90.7043.
In the case of `O=C(NCCCn1ccnc1)c1cccs1` [CBK261740] it was 94.7168; in that of `O=C(O)C1CCN(C2CC(=O)N(Cc3ccccc3)C2=O)CC1` (centres unmarked) [CBK287206], 106.171; in that of `O=C(O)CCC(=O)N1N=C2C(=Cc3ccco3)CCCC2C1c1ccco1` (centres unmarked) [CBK296069], 103.777.
As to `O=C(CCS(=O)(=O)c1cc(Cl)ccc1Cl)OCC(=O)c1ccccc1` [CBK261256], the “% of control remaining” value is reported as 109.007.
The same measure for `COC(=O)C1(Cc2ccccc2-c2ccncc2)CCOCC1` [CBK284709]: 98.4212.
Regarding `COc1cccc(C(=O)Nc2ccc(O)cc2C(=O)O)c1` [CBK268662], the “% of control remaining” value stood at 77.879.
The same measure for `Cc1cn(CC(=O)N2CCN(c3ncccn3)CC2)c(=O)[nH]c1=O` [CBK144513]: 108.001.
In the case of `Cc1ccc(C2=CCN(C(=O)c3cccc(S(=O)(=O)N(C)C)c3)CC2)cc1` [CBK298273] it was 109.967.
Consider `NC(=O)C(NCc1ccccc1)c1ccc(Cl)cc1` (centres unmarked) [CBK012748], for which the “% of control remaining” value turned out to be 63.0212.
On to `C=Cn1ncc(CN2CCC(O)(c3ccccc3C)CC2)c1C` [CBK282582], for which the “% of control remaining” value is given as 94.0412.
In the case of `CC1(c2ccc(Br)cc2)NC(=O)CS1` (centres unmarked) [CBK018962] it was 17.4498; in that of `O=S(=O)(c1ccc(-c2ccccc2)cc1)N1CCCN(Cc2cccc(F)c2F)CC1` [CBK063111], 90.8701; in that of `Cn1c(COc2ccc(Cl)cc2Cl)nnc1SCC(=O)N1c2ccccc2SC2C=CC=CC21` (centres unmarked) [CBK268359], 129.111.
The same measure for `COc1cc(C)c(NC(=O)c2cnc(-c3ccc(F)cc3)c(-c3ccncc3)c2)cc1OC` [CBK036575]: 88.2719.
In the case of `O=C(CCCn1cc([N+](=O)[O-])cn1)Nc1cc(C(F)(F)F)ccc1Cl` [CBK293987], the “% of control remaining” value is 89.6225.
In the case of `O=C(NCc1ccc(F)cc1)c1ccc(Cn2ccnc2)cc1` [CBK297719] it was 87.3364; in that of `Cc1[nH]c2ccccc2c1C(=O)CSc1nccn1Cc1ccccc1` [CBK297905], 119.209; in that of `O=S(=O)(c1ccccc1C(F)(F)F)n1ccc2c(N3CCNCC3)nccc21` [CBK045605C], 34.2963.
Take `Fc1ccc(CN2C3CCCC2CC(NC(=S)NC2CCCCC2)C3)cc1` (centres unmarked) [CBK121172]: the “% of control remaining” value is 85.8382.
In the case of `COC(=O)c1ccc(C2N(Cc3ccccc3)CCN2Cc2ccccc2)cc1` [CBK265201] it was 80.3732; in that of `Cc1c(-c2ccc(Cl)cc2Cl)nc2ccccc2c1C(=O)NCc1ccc(S(N)(=O)=O)cc1` [CBK265387], 115.797; in that of `CS(=O)(=O)Nc1cc2ccccc2c(-c2ccsc2)n1` [CBK085748], 112.13.
The same measure for `N#CCCn1cc(C(=O)N2CCOCC2)c(-c2ccc(F)cc2)n1` [CBK306189]: 78.2929; for `COc1c(C)cccc1C(=O)N1CCCC(c2ccc(Nc3nc(C)cc(C)n3)cn2)C1` (centres unmarked) [CBK285989]: 93.9457.
For the compound `O=C(O)CC/C(=N\NC(=O)c1cccnc1)c1ccccc1` [CBK261305], the “% of control remaining” value is reported as 90.155.
In the case of `Nc1cc2cc(F)ccc2nc1C1CCN(C(=O)C2CC2)CC1` [CBK284657] it was 107.043.
Regarding `c1ccc(OCCOc2nccnc2-c2ccc3c(c2)OCO3)cc1` [CBK106714], the “% of control remaining” value was 94.9355.
In the case of `OCC1CCCN1c1cncc(-c2cccc3ccccc23)n1` (centres unmarked) [CBK065509], the “% of control remaining” value was determined as 110.106.
As to `COc1ccc(NC(=O)[C@@H]2C=CCN2C(=O)C2CC2)cc1` [CBK284277], the “% of control remaining” value was found to be 63.5117.
In the case of `CCc1nc2ccccc2n1CC(=O)N(Cc1cccnc1)C1CC1` [CBK304064] it was 37.3374.
In the case of `COc1cc(C(=O)Nc2ccc3[nH]ccc3c2)cc(OC)c1OC` [CBK159696], the “% of control remaining” value is 110.12.
The same measure for `CCOC(=O)N1CCC(NC(=O)N2CCN(c3cc(C(F)(F)F)ccn3)CC2)CC1` [CBK162353]: 30.6259; for `Cn1c(SCc2cccnc2)nnc1-c1cccs1` [CBK067706]: 39.9842.
In the case of `CCC(C)c1ccc(OCC(=O)Nc2ccc3[nH]c(=O)[nH]c3c2)cc1` (centres unmarked) [CBK266911] it was 93.4045; in that of `O=C(Cn1cnnn1)NCc1cccnc1OCC(F)(F)F` [CBK306467], 67.2594; in that of `Cc1ccc(S(=O)(=O)NC(C)(C)CSc2ccccn2)cc1` [CBK266360], 132.666.
For `CCN(CC)CCNC(=O)N1CCN(c2ccccc2)CC1` [CBK155202], the “% of control remaining” value came out at 77.1333.
For the compound `O=C(Cn1cnnn1)N1CCc2ccccc2C1` [CBK200335], the “% of control remaining” value is 107.742.
The same measure for `NC(=O)c1ccccc1NC(=O)CCSc1ccc([N+](=O)[O-])cc1Cl` [CBK266396]: 104.883; for `Cc1ccc(F)c(OC2(C(=O)O)CCN(Cc3cnc(C)nc3)CC2)c1` [CBK306860]: 71.7514.
The same measure for `O=C(CN1C(=O)c2ccncc2C1=O)Nc1ccccn1` [CBK288624]: 108.229; for `Cc1nc2ccccc2n1CC(=O)N(CCC#N)Cc1ccco1` [CBK306323]: 76.5661; for `Cc1ccc2c(c1)c(=O)cc(C(F)(F)F)n2CCNC(=O)C1CC1` [CBK284831]: 114.2.
